In all, about 410,000 compounds went through this assay and about 310 (0.076%) were called active. The shares of active, inactive and inconclusive entries below differ from those in the screen. Calls follow the shape of the dose curve; as a rule, active = well fitted curve in the direction sought with a large enough effect; inconclusive = small, poorly fitted or top-dose-only effect; inactive = flat fitted curve, though single readings scatter. Potencies beside an inconclusive call are fits to weak or partial responses and may not hold up.
What follows are compounds tested against DNA dC->dU-editing enzyme APOBEC-3G (Homo sapiens) (UniProt Q9HC16) (assay: qHTS for Inhibitors of Vif-A3G Interactions: qHTS). Conditions: HeLa A3G-eYFP + Vif (tagged APOBEC3G with the HIV-1 protein that degrades it), YFP fluorescence, overnight; series mostly up to 46.1 µM.
Chain of UniProt Q9HC16 (Q9HC16 whole entry, looked up): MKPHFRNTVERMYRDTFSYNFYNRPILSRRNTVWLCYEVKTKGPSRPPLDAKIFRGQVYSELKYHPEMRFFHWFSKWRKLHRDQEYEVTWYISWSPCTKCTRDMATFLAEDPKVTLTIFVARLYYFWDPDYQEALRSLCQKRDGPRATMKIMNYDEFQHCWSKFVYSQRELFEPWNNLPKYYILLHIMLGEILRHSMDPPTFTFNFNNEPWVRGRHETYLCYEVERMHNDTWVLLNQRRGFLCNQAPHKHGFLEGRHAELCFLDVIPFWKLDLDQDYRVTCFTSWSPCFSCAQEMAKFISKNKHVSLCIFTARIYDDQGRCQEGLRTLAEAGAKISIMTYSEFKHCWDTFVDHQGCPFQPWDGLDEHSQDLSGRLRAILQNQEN
How it was run: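 Read-out is eYFP fluorescence (Ex 488/Em 500-530) from Vif-expressing HeLa A3G-eYFP cells; more signal means A3G escaped Vif-mediated degradation. Cells plated overnight, compound pinned in, incubated overnight at 37 deg C.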
Also: nearly all actives have a fitted effect of over 60% in size.
Potency is read from the fitted curve at half-maximal effect; tags tell the direction and shape of the fitted curve.

SMILES	Potency
CCN(CC)c1ccc(NC(=O)c2ccc(=O)[nH]c2)cc1S(=O)(=O)Nc1ccc(OC)cc1	inconclusive: 11.2 µM [inhibitor, partial curve]
N#CCSc1ccccc1NC(=O)COc1ccc(-c2nnco2)cc1	inconclusive: 15.8 µM [inhibitor, partial curve, poor fit]
CCOc1cccc(C(=O)NC(=S)Nc2cccc(NC(=O)c3ccccc3Cl)c2)c1	inactive
COc1ccc(Cl)cc1-n1c(CCC(=O)O)ccc1-c1ccc(C)cc1	inconclusive: 25.1 µM [inhibitor, single point]
COc1ccc(NC(=O)c2oc3ccccc3c2NC(=O)Cc2ccc(F)cc2)c(OC)c1	inactive
CCCn1c(SCC(=O)Nc2ccccc2OC)nnc1-c1ccco1	inconclusive: 8.91 µM [inhibitor, partial curve, poor fit]
Cc1cc(Br)cn2c(Cc3ccsc3)c(-c3ccc(Cl)cc3)nc12	inconclusive: 6.31 µM [inhibitor, partial curve]
COc1cccc(NS(=O)(=O)c2cc(-c3cnc(C4CC4)o3)ccc2C)c1	inconclusive: 0.794 µM [inhibitor, full curve, poor fit]
COc1cc(-c2ccc(NC(C)=O)c(OC)c2)ccc1NC(C)=O	inactive
O=C(CSc1nnc(-c2ccccc2)n1Cc1ccccc1)NNC(=O)c1ccccc1O	inconclusive: 35.5 µM [inhibitor, single point]
CN(C)CCC(=O)c1ccc(Cl)cc1	inactive
Cc1cc(N2CCN(Cc3cn(C)nc3-c3ccccc3F)CC2)cc(C)n1	inconclusive: 6.31 µM [inhibitor, partial curve, poor fit]
COc1ccc2[nH]c3c(N4CCc5ccccc5C4)ncnc3c2c1	inconclusive: 2.24 µM [inhibitor, partial curve, poor fit]
CCC(C(=O)N1CCN(c2ccccc2OC)CC1)c1ccccc1 (centres undefined)	inconclusive: 10 µM [inhibitor, partial curve]
COc1cc(C(=O)Nc2ccc3c(c2)nc(C)n3C)cc(OC)c1OC	inconclusive: 10 µM [inhibitor, partial curve]
O=C(Nc1cccc(S(=O)(=O)Nc2ccc(Cl)cc2)c1)c1cc2c(s1)CCCC2	inactive
CCOC(=O)c1c(C)oc2c(F)c(F)c(F)c(F)c2c1=O	inconclusive: 35.5 µM [inhibitor, single point]
COc1ccc2c(c1)c(C(O)CN1CCN(Cc3ccc4c(c3)OCO4)CC1)c(C)n2C (centres undefined)	inactive
CC(C)(C)C(=O)c1sc2nc(-c3cccs3)cc(C(F)(F)F)c2c1N	inconclusive: 14.1 µM [inhibitor, partial curve, poor fit]
COc1cc(C2CC(=O)c3cnc(N4CCN(CCO)CC4)nc3C2)cc(OC)c1OC (centres undefined)	inactive
COc1ccc(OC)c(Nc2cc(-c3ccccc3)nc(N)n2)c1	inconclusive: 0.562 µM [inhibitor, full curve, poor fit]
COc1ccccc1CNc1nc(NCc2ccc(NC(C)=O)cc2)c2sccc2n1	inconclusive: 25.1 µM [inhibitor, single point]
CCn1cc(S(=O)(=O)Nc2cc(C(=O)OC)ccc2C)cn1	inconclusive: 35.5 µM [inhibitor, single point]

SMILES	Potency
O=C(CCN1C(=O)C2C3CCC(C3)C2C1=O)OCC(=O)c1ccc(Cl)cc1 (centres undefined)	inactive
Cc1ccc2cccc(O)c2n1	inactive
COc1ccc(/C=C/c2ccnc3ccccc23)c(OC)c1	inconclusive: 7.08 µM [inhibitor, partial curve, poor fit]
N#Cc1ccc(/C=N/NC(=O)c2cc(-c3cccs3)nc3ccccc23)cc1	inconclusive: 2 µM [inhibitor, full curve, poor fit]
COC(=O)C1=C(C)Nc2ncnn2C1c1ccc(OC(=O)c2ccccc2)cc1 (centres undefined)	inconclusive: 11.2 µM [inhibitor, partial curve, poor fit]
Cc1ccc(-c2csc3ncnc(-n4cnc5ccccc54)c23)cc1	inconclusive: 7.08 µM [inhibitor, partial curve, poor fit]
Cc1ccc(CNc2ccc3c(c2)OCO3)cc1	active: 22.4 µM
O=C1c2sc3nc4ccccc4n3c2C(=O)N1c1ccccc1Cl	inactive
CC(=O)Nc1ccc(-c2ccnc3c2CC(C(=O)NCc2ccccc2)O3)cc1 (centres undefined)	inconclusive: 2.24 µM [inhibitor, partial curve, poor fit]
Cn1nc(C(F)(F)F)c(/C=N/OC(=O)c2ccccc2)c1Cl	inactive
O=C(CSc1ccc(-c2ccco2)nn1)c1ccccc1	inactive
Oc1cccc(/C=N/Nc2ccc(Cl)nn2)c1O	inconclusive: 0.891 µM [inhibitor, full curve, poor fit]
COc1cc(/C=N/Nc2snc(SC)c2C#N)ccc1O	inconclusive: 2.24 µM [inhibitor, full curve, poor fit]
COc1cc(/C=C2/CCC/C(=C\c3cc(O)c(OC)c(Cl)c3)C2=O)cc(Cl)c1O	inconclusive: 7.08 µM [inhibitor, partial curve, poor fit]
CC(=O)c1sc(Nc2ccccn2)nc1C	inconclusive: 22.4 µM [inhibitor, single point]
O=C(Nc1ccc(NC(=O)c2sc3ccccc3c2Cl)cc1Cl)c1ccco1	inconclusive: 35.5 µM [inhibitor, single point]
O=C(Nc1ccc(F)c(Cl)c1)N1CC=C(c2c[nH]c3ccccc23)CC1	inconclusive: 35.5 µM [inhibitor, single point]
CSc1ccc(CN(C)C(=O)COc2ccc(C(=O)c3ccccc3)cc2)cc1	inconclusive: 11.2 µM [inhibitor, single point]
Cc1c(C(=O)Nc2ccc(C(C)C)cc2)sc2nc3n(c(=O)c12)CCC3	inconclusive: 17.8 µM [inhibitor, partial curve, poor fit]
O=C(CNC(=O)c1ccco1)NCC(=O)OCC(=O)c1ccc(Cl)c([N+](=O)[O-])c1	inconclusive: 31.6 µM [inhibitor, single point]
CCc1ccc(CNC(=O)CN2C(=O)CSc3c2c(C)nn3-c2ccccc2)cc1	inactive
CCOc1cc(/C=N/Nc2nncc(-c3ccccc3)n2)ccc1O	inconclusive: 35.5 µM [inhibitor, single point]
Cc1cc(/C=N/NC(=O)c2cccc(F)c2)c(C)n1-c1ccccc1	inconclusive: 11.2 µM [inhibitor, single point]

SMILES	Potency
O=C(/C=C/c1cccs1)c1cc(Cl)ccc1O	inactive
C=CCN1C=CC(=CC=C(C#N)C#N)C=C1	inconclusive: 15.8 µM [inhibitor, partial curve, poor fit]
COc1ccccc1-n1c(CNC(=O)c2ccco2)nnc1SCC(=O)Nc1nccs1	inconclusive: 12.6 µM [inhibitor, single point]
COc1cc2nc(/C=C/c3cc(OC)c(OC)c(OC)c3)sc2cc1SC	inconclusive: 2 µM [inhibitor, full curve, poor fit]
CCC(=O)Nc1nc(CC(=O)Nc2ccccc2OC)cs1	inactive
Cc1ccc(-c2cc(C(=O)N/N=C/c3c(C)nn(-c4ccccc4)c3C)n[nH]2)s1	inconclusive: 0.794 µM [inhibitor, full curve, poor fit]
Cc1ccc(/C=C/C(=O)Nn2cnnc2)cc1	inconclusive: 25.1 µM [inhibitor, single point]
O=C(C=Cc1ccccc1)c1ccc([N+](=O)[O-])cc1	inactive
COc1cc(/C=C2\CCc3c2nc2ccccc2c3C(=O)O)cc(OC)c1OC	inactive
CCOc1ccc(CCNC(=O)CCc2c(C)nc3c(-c4ccccc4)c(C)nn3c2C)cc1OCC	inactive
Cc1cc(N2CCCCC2)nc(N)n1	inactive
O=C(/C=C/c1ccncc1)c1cc(Cl)ccc1O	inconclusive: 35.5 µM [inhibitor, single point]
CN1C(=O)c2cccc3c(N(C)C)ccc(c23)C1=O	inconclusive: 2 µM [inhibitor, partial curve, poor fit]
Cc1ccc(C)c(CN2CCC(CNC(=O)Nc3ccc(Br)cc3F)CC2)c1	inactive
Cc1cccc(Nc2nnc(-c3ccc(C(=O)N4C[C@H]5C[C@H](C4)c4cccc(=O)n4C5)cc3)c3ccccc23)c1	inconclusive: 35.5 µM [inhibitor, single point]
CCS(=O)(=O)c1ncc(Cl)c(C(=O)Nc2ccc(C)cc2)n1	inactive
COc1ccc(S(=O)(=O)Nc2cccc3cccnc23)cc1	inconclusive: 11.2 µM [inhibitor, partial curve, poor fit]
COc1cccc(-c2cnc3c(NC=O)cc(-c4ccc(S(C)(=O)=O)cc4)cn23)c1	inconclusive: 25.1 µM [inhibitor, single point]
CCOc1cc(/C=N/NC(=O)c2ccccc2-n2cccc2)ccc1O	inconclusive: 7.94 µM [inhibitor, partial curve]
COc1cccc(NC(C)C(=O)Nc2cc([N+](=O)[O-])ccc2Cl)c1 (centres undefined)	inconclusive: 28.2 µM [inhibitor, partial curve, poor fit]
O=C(CNCc1ccccc1)Nc1ccc(Cl)cc1	inconclusive: 5.62 µM [inhibitor, partial curve]
O=c1oc2cc(O)ccc2cc1-c1nc2c(s1)CCc1ccccc1-2	inactive
CC(C)(C)n1ncc2c(=O)n(CC(=O)NCc3ccccc3)cnc21	inconclusive: 10 µM [inhibitor, partial curve, poor fit]

— PubChem BioAssay AID602310 (National Center for Advancing Translational Sciences (NCATS), 2012)
